From paper PMC4336329 (PLoS ONE, 2015)
In all, about 310,000 compounds went through this assay and about 2,200 (0.71%) showed an effect of 50% or more. Effects have a minus sign here. This is one part of the list.

molecular target: human ether-à-go-go-related gene (hERG) potassium channel (human, UniProt Q12809); experiment: primary screen, population patch clamp on CHO cells stably expressing hERG
Sequence (Q12809 whole entry, looked up): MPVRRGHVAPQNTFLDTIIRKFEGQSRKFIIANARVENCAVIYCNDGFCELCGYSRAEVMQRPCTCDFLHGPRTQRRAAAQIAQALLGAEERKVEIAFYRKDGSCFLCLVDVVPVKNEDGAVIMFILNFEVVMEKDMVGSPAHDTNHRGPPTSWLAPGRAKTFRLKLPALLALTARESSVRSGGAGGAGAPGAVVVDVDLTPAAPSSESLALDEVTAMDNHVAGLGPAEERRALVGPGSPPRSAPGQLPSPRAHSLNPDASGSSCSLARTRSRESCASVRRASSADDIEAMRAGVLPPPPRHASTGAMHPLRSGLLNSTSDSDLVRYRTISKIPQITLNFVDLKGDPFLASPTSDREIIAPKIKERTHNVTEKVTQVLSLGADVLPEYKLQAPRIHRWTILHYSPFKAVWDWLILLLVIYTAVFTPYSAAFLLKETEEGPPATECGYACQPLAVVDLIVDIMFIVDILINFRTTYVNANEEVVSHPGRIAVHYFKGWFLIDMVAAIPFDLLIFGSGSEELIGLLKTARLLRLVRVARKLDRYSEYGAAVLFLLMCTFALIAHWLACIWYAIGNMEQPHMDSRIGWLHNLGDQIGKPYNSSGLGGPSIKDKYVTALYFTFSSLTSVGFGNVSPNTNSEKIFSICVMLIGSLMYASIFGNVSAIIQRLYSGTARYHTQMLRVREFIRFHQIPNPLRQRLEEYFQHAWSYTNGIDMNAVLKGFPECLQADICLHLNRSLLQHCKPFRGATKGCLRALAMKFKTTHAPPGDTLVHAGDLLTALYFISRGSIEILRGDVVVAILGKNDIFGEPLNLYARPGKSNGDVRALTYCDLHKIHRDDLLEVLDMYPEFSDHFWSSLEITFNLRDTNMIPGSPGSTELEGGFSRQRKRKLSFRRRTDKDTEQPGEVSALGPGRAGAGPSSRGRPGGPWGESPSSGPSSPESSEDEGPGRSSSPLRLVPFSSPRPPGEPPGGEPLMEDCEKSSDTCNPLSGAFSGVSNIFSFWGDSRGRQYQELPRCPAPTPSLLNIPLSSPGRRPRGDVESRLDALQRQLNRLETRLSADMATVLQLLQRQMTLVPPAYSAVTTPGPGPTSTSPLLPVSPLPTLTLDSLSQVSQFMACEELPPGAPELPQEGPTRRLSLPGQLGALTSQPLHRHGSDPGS

Compound	hERG current change (%, negative = inhibition) at 1uM
CC(=O)Nc1ccc(S(=O)(=O)Nc2ccc(F)c([N+](=O)[O-])c2)cc1	13.5%
Cc1ccc(NC(=O)Nc2ccc3c(c2)OCO3)nc1	17.8%
CCN(CC)C(=O)C(C)N(C#N)c1nc(C)cc(C)n1 (stereo not drawn)	11%
COCC(=O)Nc1cc(C(=O)OC)cc(C(=O)OC)c1	15.6%
CN(CCOc1ccccc1)CC(O)COCc1ccccc1F (stereo not drawn)	0.0936%
O=C(Nc1ccccc1-c1ccccc1)c1ccccc1	15.4%
Cc1ccc(C(=O)NCCc2ccc(F)cc2)s1	11%
CC(c1ccccc1)n1c(Br)nc2c1c(=O)[nH]c(=O)n2C (stereo not drawn)	13%
CC(=O)Nc1nnc(SCC(=O)Nc2nc(C)cs2)s1	7.85%
CCOC(=O)C1CCCN(C(=O)c2cn(CC)c3ccc(S(=O)(=O)N4CCCC4)cc3c2=O)C1 (stereo not drawn)	-1.19%
COCCn1nnnc1CN(CCc1ccccc1)Cc1cc2ccc(C)cc2[nH]c1=O	3.83%
Cc1c(C#N)c(N=CN(C)C)c(C(=O)c2ccc(Br)cc2)n1-c1ccccc1	6.7%
CC(C)C(OC(=O)c1ccco1)C(=O)NCc1ccco1 (stereo not drawn)	9.76%
O=S(=O)(Nc1c(O)ccc2ccccc12)c1cccc2ccccc12	12.8%
Br.C1CN=C(NC23CC4CC(CC(C4)C2)C3)C1	7.47%
Cc1csc(N(C(=O)Cc2ccccc2F)c2ccccc2)n1	6.63%
CC(C)CN1CCC(=O)N([C@H](CO)c2ccccc2)CC1	12.6%
N/C(=N\OC(=O)COc1ccc2ccccc2c1)c1cccnc1	14%
CCC(=O)N1CCc2nc(-c3ccccc3)sc2C1	7.67%
CCc1ccc2[nH]c(=O)c(CN(CCN(CC)CC)C(=O)NC3CCCCC3)cc2c1	-51.5%

Compound	hERG current change (%, negative = inhibition) at 1uM
Cc1ccc(C)c(NS(=O)(=O)c2csc(C(N)=O)c2)c1	13.4%
CC(C)n1nc(C(=O)NC2CCCCCC2)c2ccccc2c1=O	8.98%
Br.CCCCCCCCCn1c2c(c(=N)c3c1CCC3)CCC2	-65.5%
CCC1CCCCN1C(=O)CSc1nc(N)c(NC(=O)c2ccco2)c(=O)[nH]1 (stereo not drawn)	14.5%
Cc1ccccc1NC(=O)Cn1c(C)nc2ccc(N)cc2c1=O	7.97%
N#Cc1cc2c(nc1SCC(=O)Nc1sc3c(c1C#N)CCC3)CCCCCC2	9.58%
N#CCSc1nc(-c2ccccc2)nc2ccc(F)cc12	13%
Cc1csc(C(=O)NCC(=O)NNC(=O)c2cccc(Cl)c2)c1	9.31%
COc1ccc(C(=O)NNC(=O)CSc2nc3c([nH]2)c(=O)n(C)c(=O)n3C)cc1	26%
CCCCCOC(=O)Cc1c(O)c2ccccc2n(C)c1=O	-1.9%
Cn1c(=O)n(-c2cccc(Cl)c2)c(=O)c2c3c(sc21)COC(C)(C)C3	24.7%
CCCC(=O)NCc1ccccc1Cl	5.01%
CCOc1cc(CN2CCN(c3ccc(C(C)=O)cc3)CC2)ccc1OC	-18.3%
COc1cccc(N=Nc2c(=O)[nH]n3c(=O)c4c([nH]c23)CCC4)c1	16.5%
O=C(COC(=O)C1COc2ccccc2O1)NC1CCS(=O)(=O)C1 (stereo not drawn)	10.4%
CC(c1ccc(F)cc1)n1cc(C(=O)NCCN(C)C)nn1 (stereo not drawn)	24.1%
CCCc1ncc(C(O)(c2ccccc2)c2ccccc2)n1C.Cl	11.5%
CC(C)OC1(c2ccccc2)OC(=O)c2ccccc21 (stereo not drawn)	-3.42%
COC(=O)N1CC(C)N(C(=O)OC)CC1C (stereo not drawn)	9.79%
COc1cc(OC)cc(C(=O)OCC(=O)NCc2ccc3c(c2)OCO3)c1	14.3%

Compound	hERG current change (%, negative = inhibition) at 1uM
CC(=O)Nc1ccc(S(=O)(=O)NC2CC3CCC2C3)cc1 (stereo not drawn)	9.59%
Cc1ccc(CCNC(=O)C2CCC(CNc3c(N4CCC(C)CC4)c(=O)c3=O)CC2)cc1 (stereo not drawn)	1.16%
COc1ccc(-n2nc(C(=O)NCC(=O)Nc3ccc(F)cc3)c3ccccc3c2=O)cc1	18.4%
COC(=O)c1sccc1Oc1c(Cl)cccc1[N+](=O)[O-]	7.82%
Cc1ccc(N2CC(C(=O)Nc3ccccc3C(=O)NC3CCCCC3)CC2=O)cc1 (stereo not drawn)	5.42%
Cc1ccc(NC(=O)COC(=O)CN2C(=O)C3CCCCC3C2=O)cc1S(=O)(=O)N1CCOCC1 (stereo not drawn)	8.07%
CCCn1c(SCCN2C(=O)c3ccccc3C2=O)n[nH]c1=O	11.3%
O=S(=O)(NCc1ccco1)c1ccc(Cl)nc1	7.24%
COc1cccc(-c2nc(-c3ccccc3)[nH]c(=O)c2C#N)c1	12.3%
COC(=O)c1csc2c(C(F)(F)F)cc(N3CCN(C(=O)Nc4ccccc4)CC3)nc12	15%
CCCOC(=O)Cn1cnc2scc(-c3ccc(OC)cc3)c2c1=O	9.82%
CCCCc1cc(-c2n[nH]c(=S)o2)c2ccccc2n1	12.7%
Cc1c(C(=O)N2CCN(c3cccc(Cl)c3)CC2)cccc1[N+](=O)[O-]	-2.11%
Cc1cccc(NC(=O)c2ccc(Cl)nc2)n1	11.4%
CC(=O)c1ccccc1C(=O)N1CCCC(CNC(=O)c2ccccc2Cl)C1 (stereo not drawn)	9.7%
O=C1C(C=NCc2ccco2)=C(O)c2ccccc21	4.45%
Cc1ccc(-n2nc3c(=O)n(CCCC(=O)NCc4ccc(F)cc4)nc(C)c3c2C)cc1	-3.45%
Cc1nc(=S)c2ccccc2[nH]1	6.91%
CCOCCCNC(=S)N(CCN(CC)CC)Cc1cc2cc3c(cc2[nH]c1=O)OCCO3	11%
CCOC(=O)C1Nc2ccc(C)cc2C2C=CCC12 (stereo not drawn)	16.8%
